Assay results from PubChem BioAssay AID1477 (National Center for Advancing Translational Sciences (NCATS), 2009).
Fewer than 10 of roughly 230,000 compounds were called active. Inconclusive means that the source gave no clear call. Such entries were picked first, then a sample of the others. The call rests on the fitted dose curve; in most records, active means well fitted curve in the direction sought with a large enough effect; inconclusive means small, poorly fitted or top-dose-only effect, or effect the other way, or another doubt; inactive means no such curve, though single readings can be large or run the other way. Potencies of inconclusive entries are left out as doubtful fits.

Each compound was assayed against Runt-related transcription factor 1 (Homo sapiens) + Core-binding factor subunit beta (Homo sapiens) (UniProt Q01196+Q13951) (assay: qHTS Assay for Compounds Blocking the Interaction Between CBF-beta and RUNX1 for the Treatment of Acute Myeloid Leukemia). Conditions: AlphaScreen CBFb-His/RUNX1-biotin binding, biochemical; activity, negative = inhibition: at 59.8 µM (top of the series) unless noted.
Sequence of UniProt Q01196 (Q01196 whole entry, looked up): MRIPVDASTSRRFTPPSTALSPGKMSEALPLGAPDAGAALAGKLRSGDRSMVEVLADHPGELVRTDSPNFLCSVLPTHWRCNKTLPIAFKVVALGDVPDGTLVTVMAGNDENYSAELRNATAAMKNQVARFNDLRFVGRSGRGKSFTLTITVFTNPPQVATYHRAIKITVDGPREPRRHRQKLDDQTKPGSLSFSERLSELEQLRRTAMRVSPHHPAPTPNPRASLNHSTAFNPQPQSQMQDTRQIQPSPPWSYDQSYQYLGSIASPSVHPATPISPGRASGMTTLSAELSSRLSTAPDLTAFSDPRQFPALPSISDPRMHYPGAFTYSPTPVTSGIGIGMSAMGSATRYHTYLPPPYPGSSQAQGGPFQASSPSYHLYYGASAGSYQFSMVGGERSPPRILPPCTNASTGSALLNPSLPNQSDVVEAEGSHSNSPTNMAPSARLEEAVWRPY
Sequence of UniProt Q01196 (Q13951 whole entry, looked up): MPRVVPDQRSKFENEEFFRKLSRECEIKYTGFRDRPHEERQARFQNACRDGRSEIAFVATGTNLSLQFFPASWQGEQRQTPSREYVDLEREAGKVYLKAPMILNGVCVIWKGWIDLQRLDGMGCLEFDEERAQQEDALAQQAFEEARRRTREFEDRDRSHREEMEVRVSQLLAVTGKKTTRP
Summary of the method: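 AlphaScreen binding: CBFb-His and RUNX1-biotin (30 nM each) preincubated 20 min, compound added for 15 min, then nickel and streptavidin beads for 90 min, all at room temperature. Disruption of the interaction by any mechanism counts as activity.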
Wherever activity, negative = inhibition is given: % of control where 0% means no effect.

| SMILES | Potency | activity, negative = inhibition |
| --- | --- | --- |
| COc1cccc(C2c3c(-c4ccccc4O)n[nH]c3C(=O)N2Cc2ccco2)c1 (stereo not drawn) | inconclusive [inhibitor, partial curve] | – |
| CCn1cc(/C=N/NS(=O)(=O)c2ccc(OC)cc2)c(C)n1 | inactive | – |
| Cc1c(C)n2c3c(cccc13)CC2 | inconclusive [activator, single point] | – |
| CCn1c(SCC(=O)N/N=C/C=C/c2ccco2)nc2ccccc21 | inconclusive [inhibitor, single point] | – |
| Nc1nc(CN2CCN(Cc3ccccc3)CC2)nc(Nc2ccccc2)n1 | inconclusive [inhibitor, single point] | – |
| COc1ccc(/C(O)=C2/C(=O)C(=O)N(CCN3CCOCC3)C2c2ccccn2)cc1OC (stereo not drawn) | inconclusive [inhibitor, single point] | – |
| CCc1c(C)sc(NC(=O)CSc2nc3c(c(C(F)(F)F)n2)CCc2ccccc2-3)c1C#N | inactive | – |
| COc1ccc(NC(=S)NNC(=O)COc2ccc(Cl)cc2Cl)cc1 | inactive | – |
| COC(=O)C1=C[C@@H](C(=O)OC)C2C3=C(C(=O)[C@]2(CC(C)C)NC(=O)c2ccccc2)[C@H](C)n2c(=O)n(-c4ccccc4)c(=O)n2[C@@H]3C1 (stereo partly drawn) | inconclusive [inhibitor, single point] | – |
| O=C(Nc1ccc(Br)cc1)N1CCCCC1 | inactive | – |
| COn1c2c(c3c4nonc4ccc31)CCCC2 | inconclusive [activator, single point] | – |
| CN(C)/C=C(\C#N)C(N)=C(C#N)C#N | inactive | – |
| CC(C)Nc1nc(NC(C)C)nc(N(C)N)n1 | inconclusive [inhibitor, single point] | – |
| O=C1OC(c2cccs2)=N/C1=C/c1ccc(-c2cccc(C(=O)O)c2)o1 | inconclusive [inhibitor, partial curve] | – |
| O=C(CSc1ccccn1)N1CCN(c2cccc(Cl)c2)CC1 | inactive | – |
| COc1ccc(C(=O)O/N=C(/c2cccs2)C(C)(C)C)cc1 | inconclusive [activator, partial curve] | – |
| COc1cc2cc3c4c(cc(OC)c(OC)c4c2cc1OC)CCN3C | inconclusive [inhibitor, full curve, poor fit] | – |
| COc1ccc(/C=N/NC(=O)c2ccc(O)cc2)cc1CN1CCCc2ccccc21 | inconclusive [inhibitor, single point] | – |
| CCOC(=O)N1CCN(C(=O)c2ccc(CS(=O)(=O)c3c(Cl)cccc3Cl)o2)CC1 | inconclusive [inhibitor, single point] | – |
| CCNC(=O)COC(=O)CCC(=O)c1cccs1 | inconclusive [activator, partial curve] | – |
| O=P(c1ccccc1)(c1ccccc1)N1CC2(CC2)CC(O)(c2ccccc2)C1 (stereo not drawn) | inactive | – |
| COc1ccc(-c2nc(SCC(=O)NC3CCCC3)c(-c3ccc(OC)cc3)[nH]2)cc1 | – | inactive: 1.18% [at 2.36 µM] |

| SMILES | Potency | activity, negative = inhibition |
| --- | --- | --- |
| CC(=O)OCC1=C(C(=O)O)N2C(=O)C(NC(=O)C(C)Cn3nc(C)c(Cl)c3C)C2SC1 (stereo not drawn) | inconclusive [inhibitor, single point] | – |
| CC(C)CCC1(CN2CCCC2=O)C(=O)NC(=O)NC1=O | inconclusive [inhibitor, single point] | – |
| S=c1sc(SCCOc2ccccc2)nn1-c1ccccc1 | inconclusive [activator, single point] | – |
| O=[N+]([O-])C(=c1ccc2c(c1)N1C3=C(CCCC3)CC3CCCCC31N=2)[N+](=O)[O-] (stereo not drawn) | inconclusive [inhibitor, partial curve] | – |
| CNC(=O)[C@@H]1C[C@H]1[C@@H](NP(=O)(c1ccccc1)c1ccccc1)c1ccccc1 | inactive | – |
| O=[N+]([O-])c1ccccc1/C=N/N1CCN(c2ccc(Cl)cc2)CC1 | inactive | – |
| O=C1N(c2cccc3ccccc23)C(c2ccccc2)N2CCCN12 (stereo not drawn) | inconclusive [inhibitor, single point] | – |
| CC(C)C1C(C#N)=C(N)Oc2n[nH]c(-c3ccccc3)c21 (stereo not drawn) | inactive | – |
| O=C(c1c[nH]cc1-c1ccccc1)c1cccc2ccccc12 | inconclusive [inhibitor, single point] | – |
| CN(C)/N=C/c1ccc(Sc2ccccc2[N+](=O)[O-])o1 | inconclusive [inhibitor, single point] | – |
| COc1ccccc1-n1c(-c2ccccc2)c[n+]2c1CCc1ccccc1-2 | inactive | – |
| Cn1c(-c2c(N)n(CCc3ccccc3)c3nc4ccccc4nc23)nc2ccccc21 | inconclusive [activator, partial curve] | – |
| CCN(CC)C(=O)c1cn(C)c2ccc(S(=O)(=O)N(CC)CC)cc2c1=O | inconclusive [inhibitor, single point] | – |
| COc1ccc2c(c1)O[C@H](c1ccc3c(c1)OCO3)[C@@H](OC(=O)NCc1ccco1)C2=O | inconclusive [inhibitor, single point] | – |
| COCCn1c(Cc2cccn2C)nnc1SCC(=O)Nc1nccs1 | inconclusive [inhibitor, single point] | – |
| COc1ccc(C2=NN(C(=O)CCC(=O)O)C(c3cccs3)C2)cc1 (stereo not drawn) | inconclusive [inhibitor, single point] | – |
| Cc1ccc(O)c(C(=O)c2cnc3c(c2)COc2ccc(C)cc2-3)c1 | inconclusive [inhibitor, partial curve] | – |
| Cc1cccc(Oc2cc([N+](=O)[O-])cc3c2C(=O)Nc2ccccc2O3)c1 | inconclusive [inhibitor, single point] | – |
| Cc1ccccc1N(CC(=O)Nc1ccc(S(=O)(=O)N2CCOCC2)cc1)S(C)(=O)=O | inactive | – |
| COc1ccc(C(c2ccc(OC)cc2)C(Cl)(Cl)Cl)cc1 | inconclusive [activator, partial curve, poor fit] | – |
| CCn1c2ccccc2c2cc(/C=N/NC(=O)c3ccccc3)ccc21 | inactive | – |
